From PubChem BioAssay AID485281 (National Center for Advancing Translational Sciences (NCATS), 2010)
The campaign covered roughly 350,000 compounds. About 260 (0.074%) were called active. Inconclusive results, whose numbers are uncertain, are shown with a selection of clear calls. Calls follow the shape of the dose curve; as a rule, active = well fitted inhibition curve with a large enough effect; inconclusive = small, poorly fitted or top-dose-only effect; inactive = no such curve, though single readings can be large or run the other way. Potencies beside an inconclusive call are fits to weak or partial responses and may not hold up.

These molecules were tested against Ferritin light chain (Equus caballus) (UniProt P02791) (assay: qHTS Assay for Identification of Novel General Anesthetics). Details: apoferritin/1-aminoanthracene competitive binding, fluorescence; series mostly up to 77.5 µM.
In short: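 Apoferritin-based anesthetic binding model; compound displacement of fluorescent 1-AMA measured as endpoint fluorescence after 10 minutes at room temperature, scaled to free-ligand and complex controls.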
Also: nearly all actives have a fitted effect of over 20% in size.
Potency is read from the fitted curve at half-maximal effect; tags tell the direction and shape of the fitted curve.

Sequence of UniProt P02791 (P02791 whole entry, looked up): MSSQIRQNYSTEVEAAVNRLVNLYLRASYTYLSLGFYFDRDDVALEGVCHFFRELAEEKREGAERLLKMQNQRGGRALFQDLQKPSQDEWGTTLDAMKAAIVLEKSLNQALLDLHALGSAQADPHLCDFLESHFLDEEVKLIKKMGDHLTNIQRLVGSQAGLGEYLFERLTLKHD

| SMILES | Potency |
| --- | --- |
| COc1ccc(-c2c(C(C)=O)c(C)nc3sc4c(=O)n(-c5ccc(C)cc5)nnc4c23)cc1 | inconclusive: 6.31 µM [inhibitor, partial curve] |
| CCc1ccccc1N(C(=O)CCC(=O)Nc1cc(C)on1)C(C(=O)NC1CCCC1)c1ccco1 (centres undefined) | inconclusive: 28.2 µM [inhibitor, partial curve] |
| Cc1ccc2nc(CN3CCN(S(=O)(=O)c4ccc(C)c(C)c4)CC3)oc2c1 | inactive |
| COc1cccc(NC(=O)COC(=O)c2c(-c3ccccc3)noc2C)c1 | inconclusive: 22.4 µM [inhibitor, partial curve] |
| Cc1ccc(C2CC(=O)n3nc(-c4cccc(C)c4)nc3S2)cc1 (centres undefined) | inconclusive: 14.1 µM [inhibitor, partial curve] |
| CCc1nnc(NC(=O)c2cc(S(=O)(=O)N(C)c3ccc(OC)cc3)ccc2Cl)s1 | inconclusive: 15.8 µM [inhibitor, partial curve] |
| O=C(CSc1nnc(CNc2ccc(F)cc2)o1)N1CCCc2ccccc21 | inconclusive: 28.2 µM [inhibitor, partial curve] |
| O=C(CN1CCN(Cc2ccccc2)CC1)N/N=C/c1cccnc1 | inactive |
| CCOC(=O)c1c(NC(=O)COc2ccc(C(C)(C)C)cc2)sc2c1CCCC2 | inconclusive: 31.6 µM [inhibitor, partial curve] |
| O=[N+]([O-])c1ccccc1/C=C/C=N/Nc1nc(N2CCCCC2)nc(N2CCCCC2)n1 | inactive |
| O=c1c2c([N+](=O)[O-])cc([N+](=O)[O-])cc2nc2ccccn12 | inconclusive: 31.6 µM [inhibitor, partial curve] |
| CCOc1cccc(C(=O)N(Cc2ccc(F)cc2)Cc2ccco2)c1 | inactive |
| Cc1ccc(N2C(=O)CCSC23C(=O)N(Cc2ccc(F)cc2)c2ccccc23)cc1 (centres undefined) | inactive |
| C=C(C)CN(CC)C(=O)CN1C(=O)NC(C)(c2ccc3ccccc3c2)C1=O (centres undefined) | inconclusive: 56.2 µM [inhibitor, single point] |
| CC(=O)c1sc(=S)n(Cc2ccccc2)c1C | inactive |
| CC1CCN(C(=O)CSc2nnc(NC(=O)Nc3ccccc3)s2)CC1 | inconclusive: 31.6 µM [inhibitor, partial curve] |
| COc1ccc(Nc2nc(-c3cccs3)nc3ccccc23)cc1 | inactive |
| Oc1ccc(-c2csc(Nc3cccc4ccccc34)n2)cc1O | inactive |
| Cc1ccccc1C(=O)N1CCN=C1SCc1ccc([N+](=O)[O-])cc1 | inconclusive: 35.5 µM [inhibitor, partial curve] |
| O=C(NCCCc1ccccc1)c1cc([N+](=O)[O-])ccc1Cl | inconclusive: 25.1 µM [inhibitor, single point] |
| CCOC(=O)C1CCN(C(=O)Cn2ncc3c4ccccc4n(Cc4ccccc4)c3c2=O)CC1 | inactive |
| Cc1ccccc1CC1(CO)CCCN(Cc2nc(-c3cccs3)oc2C)C1 (centres undefined) | inconclusive: 35.5 µM [inhibitor, partial curve] |
| COc1cccc(-c2cc(C(F)(F)F)n3nc(C(=O)Nc4c(C)n(C)n(-c5ccccc5)c4=O)cc3n2)c1 | inconclusive: 14.1 µM [inhibitor, partial curve] |

| SMILES | Potency |
| --- | --- |
| Cc1ccc(-c2nc(NC(=O)c3cc(C(C)(C)C)nn3C)sc2C)cc1Cl | inactive |
| Cc1ccccc1NC(=O)CN(C)S(=O)(=O)c1cccc2nsnc12 | inactive |
| COc1ccccc1CNC(=O)C1CCN(S(=O)(=O)c2cccc3cccnc23)CC1 | inconclusive: 35.5 µM [inhibitor, single point] |
| O=S(=O)(/C=C/c1ccccc1)Oc1ccccc1 | inconclusive: 35.5 µM [inhibitor, partial curve] |
| Cc1ccccc1NC(=O)CSc1nnc(-c2ccoc2C)n1CCc1ccccc1 | inconclusive: 39.8 µM [inhibitor, partial curve] |
| CCn1cc(S(=O)(=O)NCCc2ccccc2OC)cn1 | inactive |
| CC(C)(C)C(=O)COC(=O)CNC(=O)c1ccc(Oc2ccccc2)cc1 | inconclusive: 11.2 µM [inhibitor, partial curve] |
| Cc1ccc(-c2nnn(CC(=O)NC3CC4CCC3C4)n2)cc1 (centres undefined) | inconclusive: 12.6 µM [inhibitor, partial curve] |
| CCOc1ccc(NC(=O)C2=C(C)NC(=S)NC2c2ccc(O)c(OC)c2)cc1 (centres undefined) | inactive |
| C1CCC(NC(=NC2C3CC4CC(C3)CC2C4)N2CCOCC2)CC1 (centres undefined) | inactive |
| COc1ccccc1N=c1sc2ccccc2n1C | inconclusive: 17.8 µM [inhibitor, partial curve] |
| Cc1ccc2c(CN3C(=O)NC(C)(c4ccc5c(c4)OCO5)C3=O)cc(=O)oc2c1 (centres undefined) | inconclusive: 10 µM [inhibitor, full curve, poor fit] |
| O=C(Nc1ccc(Oc2cccc(C(F)(F)F)c2)nc1)c1cccs1 | inconclusive: 39.8 µM [inhibitor, single point] |
| CC(=O)c1ccc(N2CCN(CC(O)COC(c3ccccc3)c3ccccc3)CC2)cc1 (centres undefined) | inactive |
| CCOC(=O)c1c(C)sc(-c2c(-c3cc(C)ccc3C)[nH]c3c2c(=O)[nH]c(=O)n3C)c1O | inconclusive: 50.1 µM [inhibitor, partial curve] |
| CC(C)OP(=O)(OC(C)C)/C(C=O)=N\Nc1ccc([N+](=O)[O-])cc1 | inactive |
| Cc1cccc(NC(=O)Cn2nc(N3CCN(c4ccccc4)CC3)ccc2=O)c1C | inconclusive: 7.08 µM [inhibitor, full curve] |
| Cc1ccc(/C=N/NC(=O)C2(C)CC2(Br)Br)cc1 (centres undefined) | inconclusive: 28.2 µM [inhibitor, partial curve] |
| CC(C)(C)C#CC(CCc1ccccc1)OS(N)(=O)=O (centres undefined) | inconclusive: 28.2 µM [inhibitor, partial curve] |
| CC(C)c1ccc(S(=O)(=O)N2CCN(CCC(=O)Nc3ccc(N(C)C)cc3)CC2)cc1 | inactive |
| CC(C)NC(=O)c1onc(CSc2ccc(F)c(F)c2)c1C(=O)O | inactive |
| O=C(Nc1ccc(C(=O)O)cc1)/C(=C\C=C\c1ccccc1)NC(=O)c1ccccc1Cl | inconclusive: 15.8 µM [inhibitor, partial curve] |
| CC(Oc1ccccc1)C(=O)N=Nc1c(O)[nH]c2ccc(Br)cc12 (centres undefined) | inconclusive: 31.6 µM [inhibitor, partial curve] |

| SMILES | Potency |
| --- | --- |
| CC(C)(C)c1ccc(-c2noc(CCC(=O)NCc3ccco3)n2)cc1 | inconclusive: 31.6 µM [inhibitor, partial curve] |
| CC(=O)N1CCN(c2ccc(NCc3cccc4ccccc34)cc2)CC1 | inconclusive: 39.8 µM [inhibitor, single point] |
| COc1cccc(NS(=O)(=O)c2ccc3[nH]cc(C(=O)NC4CCCCC4)c(=O)c3c2)c1 | inconclusive: 3.98 µM [inhibitor, full curve, poor fit] |
| Cc1cc(NS(=O)(=O)c2ccc(NC(=O)COc3c(C)cc(Br)cc3C)cc2)no1 | inconclusive: 56.2 µM [inhibitor, single point] |
| c1ccc(-c2csc3ncnc(-n4cnc5ccccc54)c23)cc1 | inconclusive: 35.5 µM [inhibitor, partial curve] |
| O=S(=O)(NCc1ccccc1)c1ccc2[nH]c3c(c2c1)CCCCC3 | inconclusive: 2.24 µM [inhibitor, partial curve] |
| O=C(c1cn(CC2CCCCC2)nn1)N1CCN(c2ccc(F)cc2)CC1 | inconclusive: 28.2 µM [inhibitor, partial curve] |
| CC(C)CCNC(=O)c1cn(CC(C)C)c(=O)c2c1c1ccccc1n2C | inactive |
| CC(C)CC(CCc1ccccc1)OS(N)(=O)=O (centres undefined) | inconclusive: 39.8 µM [inhibitor, single point] |
| COc1ccc(C)cc1NCc1cc(=O)oc2cc(-c3ccccc3)c(O)cc12 | inconclusive: 35.5 µM [inhibitor, single point] |
| NC(=O)Nc1ccc(Nc2ccccc2)cc1 | inconclusive: 50.1 µM [inhibitor, single point] |
| Cc1cc(C)cc(NC(=O)CSc2ccc(-c3ccccn3)nn2)c1 | inactive |
| CC1CN(Cc2c(O)ccc3c(=O)c(-c4ccccc4)coc23)CC(C)O1 (centres undefined) | inactive |
| NC(=O)NC(=O)COC(=O)CCSc1ccccc1 | inconclusive: 35.5 µM [inhibitor, single point] |
| COc1cc(O)c(C(=O)/C=C/c2ccccc2)c(OC)c1 | inactive |
| CCOCCCNCc1ccc(OCCC(C)C)c(OC)c1 | inconclusive: 14.1 µM [inhibitor, partial curve] |
| CCC(=O)Nc1ccc(C(=O)OCc2ccccc2)cc1 | inconclusive: 22.4 µM [inhibitor, partial curve] |
| CC(C)c1ccc(/C=C2\SC(=S)N(CCC(=O)N3CCCCC3CCO)C2=O)cc1 (centres undefined) | inconclusive: 10 µM [inhibitor, partial curve] |
| Clc1c(CSc2nc3ccccc3o2)nc2ccccn12 | inconclusive: 28.2 µM [inhibitor, partial curve] |
| COc1ccc(/C=C2\N=C(SC)N(C)C2=O)cc1 | inconclusive: 17.8 µM [inhibitor, partial curve] |
| O=C(CSc1nc(O)c(C2CCCCC2)c(=O)[nH]1)NCC1CCCO1 (centres undefined) | inconclusive: 11.2 µM [inhibitor, partial curve] |
| C=CCNC(=O)/C(C#N)=C/c1ccccc1OCc1ccc(C(=O)OC)cc1 | inconclusive: 50.1 µM [inhibitor, single point] |
| CCCCOC(=O)c1cc2c(cn1)[nH]c1ccccc12 | inconclusive: 14.1 µM [inhibitor, partial curve] |
